Molecules are shown by their SMILES. The campaign covered roughly 48,000 compounds. About 1,200 (2.5%) were called active. Not shown: some 2% with an inconclusive outcome.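 How the source made its calls: active means activation of at least 60% and not above a set upper limit (about 1 call in 100 departs from these limits); inconclusive means activation of 40% to 60%, or above that upper limit; inactive means activation under 40%.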 This is one part of the list.

In the assay the target is Probable G-protein coupled receptor 32 (Homo sapiens) (UniProt O75388). The experiment in a line: qHTS for Agonists of Human Resolvin D1 Receptor DRV1. Further: 0% is about no effect. Conditions: CHO-K1 GPR32 beta-arrestin PathHunter luminescence, 90 min; at 76.9 µM; stronger effect = higher value; zero percent set by DMSO-only wells. In a few lines: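 PathHunter beta-arrestin recruitment in CHO-K1 cells stably expressing ProLink-tagged GPR32. Cells were exposed to compound for 90 min at 37 C, then chemiluminescence was read after 1 h detection at ambient temperature; DMSO served as basal control.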
Chain of UniProt O75388 (O75388 whole entry, looked up): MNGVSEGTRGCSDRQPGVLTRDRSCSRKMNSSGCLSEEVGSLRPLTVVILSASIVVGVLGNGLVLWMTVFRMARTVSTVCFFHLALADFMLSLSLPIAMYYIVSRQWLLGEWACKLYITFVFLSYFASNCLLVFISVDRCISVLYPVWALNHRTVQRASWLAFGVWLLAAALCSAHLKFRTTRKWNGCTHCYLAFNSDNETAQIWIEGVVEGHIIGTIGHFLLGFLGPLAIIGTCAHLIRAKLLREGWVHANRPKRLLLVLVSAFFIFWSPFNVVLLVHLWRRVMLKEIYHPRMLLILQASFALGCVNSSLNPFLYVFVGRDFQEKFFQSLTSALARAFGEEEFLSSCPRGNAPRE
Consider `COc1ccc2c(c1)c1c(c(=O)n(-c3ccccc3)c(=O)n1CC(=O)NCc1ccc(C)cc1)n2C`, for which the activation was inactive: 0.73%.

For the compound `COc1ccc(C2C(=O)N(C3CCC(C)CC3)CC(=O)N2C2CCCC2)cc1OC` (stereo not drawn), the activation is inactive: -12.2%.

As to `COc1ccc(CC(=O)N(Cc2nc(-c3ccc(C)cc3)no2)C(C)C)cc1`, the activation is inactive: -3.35%.

With `O=C(CSc1nc2nccnc2c(=O)n1CCc1c[nH]c2ccccc12)Nc1ccc(F)cc1`, the activation is inactive: 8.51%.

Regarding `CCN(C(=O)c1c(C)oc2ncn(CC(C)C)c(=O)c12)c1cccc(Cl)c1`, the activation was inactive: -14.2%.

With `CCCCNC(=O)CCn1c(=O)c2cccn2c2cccnc21`, the activation was inactive: -5.19%.

Regarding `COc1ccc(C)cc1NC(=O)c1cc(S(=O)(=O)N2CCc3ccccc3C2)ccc1F`, the activation was inactive: -10.5%.

As for `Cc1oc(-c2ccc(C(=O)NCc3ccccc3Cl)cc2)nc1CN1CCc2ccccc21`, the activation is inactive: -1.77%.

In the case of `CCCn1c(CCC(=O)Nc2ccc(C)c(Cl)c2)nc2cccnc21`, the activation is inactive: -24.9%.

For the compound `O=C(CC1N=C2c3ccccc3N=C(SCc3cccc(Cl)c3)N2C1=O)NCCc1ccccc1` (stereo not drawn), the activation was inactive: 40.8%.

On to `CCC1=C(c2ccc(C)cc2)S(=O)(=O)N=C1N1CCC(C(=O)NCCc2ccc(Cl)cc2)CC1`, for which the activation is inactive: -15.9%.

With `Cc1ccc(CCNC(=O)c2c[nH]c3ccc(S(=O)(=O)Nc4cccc(C(F)(F)F)c4)cc3c2=O)cc1`, the activation was inactive: -14.8%.

With `Cc1ccc(S(=O)(=O)C(CNC(=O)C(=O)NCCc2ccc(Cl)cc2)c2cccs2)cc1` (stereo not drawn), the activation is inactive: -0.141%.

Regarding `O=C(Cn1c(=O)nc(-c2ccccc2)c2cc(Cl)ccc21)NCc1ccc(Cl)cc1`, the activation was inactive: 17%.

Take `Nc1nc(Nc2ccccc2)nc2c1ncn2[C@@H]1O[C@H](CO)[C@@H](O)[C@H]1O`: the activation was inactive: -0.962%.

As to `CCCS(=O)(=O)N1CC(=O)N(c2ccc(C)cc2C)C(C)(C(=O)NC2CCCCCC2)C1` (stereo not drawn), the activation was inactive: 0.0718%.

Take `CCOc1ccc(CCNC(=O)c2ccc3c(c2)N(Cc2ccccc2F)C(=O)c2ccccc2S3=O)cc1OCC` (stereo not drawn): the activation is inactive: -8.71%.

As to `COc1ccc(CCNS(=O)(=O)c2cc(-c3onc(C)c3C)ccc2OC)cc1OC`, the activation was inactive: -12.3%.

With `O=C(CCS(=O)(=O)c1cc2c3c(c1)CCN3C(=O)CC2)Nc1cccc(Br)c1`, the activation is inactive: 18.2%.

On to `O=C(Nc1cnn(Cc2ccc(Cl)cc2Cl)c1)c1noc2c1CCc1ccccc1-2`, for which the activation was inactive: -8.12%.

As to `COc1ccc(C(CC(=O)Nc2cc(OC)c(OC)c(OC)c2)N2Cc3ccccc3C2=O)cc1` (stereo not drawn), the activation was inactive: 0.781%.

`CCN1CCN(CCCNC(=O)Cn2c(-c3cccs3)cc3cc(F)ccc32)CC1`: the activation is inactive: 15.8%.

Consider `O=C(COCc1cc(-c2ccc3c(c2)OCO3)on1)Nc1cc(C(F)(F)F)ccc1Cl`, for which the activation is inactive: -17.1%.

For `Cc1cc2c(cc1S(=O)(=O)CCC(=O)N1CCCCC1C)OCC(=O)N2` (stereo not drawn), the activation is inactive: 10.5%.

Take `Cc1ccc(C)c(Nc2nn3c(=O)c4cc5c(cc4nc3s2)OCO5)c1`: the activation is active: 63.3%.

As to `CCc1ccc(NC(=O)CSc2nc(=O)n(Cc3ccncc3)c3c2CCC3)cc1`, the activation was inactive: 3.48%.

On to `COc1ccccc1N1CCN(S(=O)(=O)CCNC(=O)Cc2ccc(Cl)cc2)CC1`, for which the activation was inactive: -9.42%.

Turning to `O=c1c(S(=O)(=O)c2ccccc2)cn(Cc2cccc(F)c2)c2cc(N3CCCC3)c(F)cc12`, the activation is inactive: -12.4%.

Take `CCOC(=O)N1CCc2c(sc(NCc3cccs3)c2C(=O)Nc2ccc(OC)cc2OC)C1`: the activation was inactive: 0.701%.

`CCCCN(C)CCNC(=O)CN1C(=O)CSc2ccc(S(=O)(=O)N3CCCCC3)cc21`: the activation is inactive: -7.3%.

For the compound `O=C(CCC1N=C2c3ccccc3N=C(SCC(=O)Nc3ccc(F)cc3)N2C1=O)NCc1cccs1` (stereo not drawn), the activation is inactive: -16.4%.

Turning to `Cc1cccc(NC(=O)c2ccc(CNS(=O)(=O)c3ccc4c(c3)C(C)(C)C(=O)N4C)cc2)c1`, the activation is inactive: 16.7%.

Take `Cc1ccc(N2CCN(C(=O)NCc3noc4ccc(C)cc34)CC2)c(C)c1`: the activation was inactive: -24.4%.

As to `Cc1ccccc1C(=O)N(Cc1ccc(N(C)C)cc1)CC1CCCO1` (stereo not drawn), the activation is inactive: -21.9%.

Consider `O=C(NCCOCCn1c(=O)oc2ccccc21)Nc1cccc(Cl)c1`, for which the activation is inactive: -9.21%.

For the compound `COc1ccccc1NC(=O)CSC1=Nc2ccccc2C2=NC(CC(=O)NCc3ccc4c(c3)OCO4)C(=O)N12` (stereo not drawn), the activation is inactive: 20%.

In the case of `CCOC(=O)c1noc2ncnc(NCc3ccccc3OC)c12`, the activation is inactive: -23.7%.

Take `COc1ccccc1N=C1SC(C(=O)Nc2ccccc2OC)CC(=O)N1C` (stereo not drawn): the activation is inactive: -16.1%.

In the case of `Cc1ccc(CNC(=O)c2sc3nc4n(c(=O)c3c2C)CCCCC4)cc1`, the activation is inactive: -2.72%.

For the compound `COC(=O)c1ccccc1NC(=O)C1CCCN(c2ncnc3onc(C)c23)C1` (stereo not drawn), the activation is inactive: 6.6%.

Consider `CC(C)c1ccc(NC(=O)c2ccc3c(O)c(S(=O)(=O)c4ccccc4)c(=O)[nH]c3c2)cc1`, for which the activation was inactive: -0.853%.

Turning to `Cc1ccc(C(=O)N(c2ccc(C)cc2)S(=O)(=O)c2ccc(Cl)cc2)cc1`, the activation is inactive: -30.1%.

Take `Cc1ccc(-n2nc(C(=O)N(C)Cc3ccccc3)c3c4ccccc4n(C)c3c2=O)cc1`: the activation is inactive: -2.04%.

As for `COc1cc(OC)c(N(C)C(=O)c2cc3c(=O)oc4ccccc4c3s2)cc1Cl`, the activation was inactive: 19.9%.

Take `O=c1c2ccccc2n2c(-c3ccccc3F)nnc2n1CCc1ccccc1`: the activation is inactive: 14.9%.

Turning to `Cc1ccc(-n2c(=O)c3c(c4cc(C)ccc4n3C)n(Cc3ccc(F)cc3)c2=O)cc1`, the activation was inactive: -9.75%.

In the case of `Cc1ccc(NC(=O)C(Cc2ccccc2)N2Cc3ccccc3C2=O)cc1Cl` (stereo not drawn), the activation is inactive: -23.3%.

Consider `O=C(CNC(=O)c1ccccc1)OCc1cc(=O)n2nc(C3CC3)sc2n1`, for which the activation was inactive: -4.49%.

In the case of `Cc1ccc(Nc2c(-c3ccc(C)o3)nc3cccc(C)n23)cc1`, the activation is inactive: -21.3%.

Regarding `CCC1CCCCN1C(=O)CCS(=O)(=O)c1cc2c(cc1C)NC(=O)CO2` (stereo not drawn), the activation is inactive: 1.87%.

In the case of `O=c1c2oc3ccccc3c2n(Cc2ccc(Cl)cc2)c(=O)n1Cc1ccccc1`, the activation was inactive: -11.1%.

Consider `CCS(=O)(=O)c1ncc(Cl)c(C(=O)NCc2ccccc2)n1`, for which the activation was inactive: -12.8%.

As for `CC1(C)OC(=O)Nc2ccc(Br)cc21`, the activation was inactive: -4.65%.

In the case of `Cc1cc(C)cc(-n2c(SCC(=O)N3CCCCCC3)nc3c([nH]c4ccccc43)c2=O)c1`, the activation was inactive: -8.14%.

Take `COc1ccc(-c2cc(=O)oc3c4c(ccc23)OCN(Cc2ccccc2)C4)cc1`: the activation was inactive: -6.26%.

With `O=C(Nc1cc(F)ccc1F)c1ccc(CN2CC(=O)N3CCCCC3C2=O)cc1` (stereo not drawn), the activation was inactive: -10.3%.

Take `CC(=O)c1ccc(NC(=O)CSc2nnc(N)s2)cc1`: the activation is inactive: -5.08%.

With `C=C(C)Cn1c(SCC(=O)c2ccccc2)nc2sc3c(c2c1=O)CCCC3`, the activation is inactive: -6.54%.

For the compound `CC(=O)Nc1c(C)nn(-c2ccccc2)c1N1CCC(C(=O)NCc2ccc(F)cc2)CC1`, the activation was inactive: -3.13%.

With `CCn1cc2nc(SCc3cccc(C(F)(F)F)c3)n(Cc3ccc(OC)cc3)c(=O)c2n1`, the activation was inactive: -17.4%.

Regarding `CCOCCn1c(N2CCCN(C)CC2)nc2ccccc21`, the activation was inactive: -0.415%.

`Cc1ccc2oc(-c3cc(NC(=O)c4oc5ccccc5c4C)ccc3Cl)nc2c1`: the activation was inactive: 2.37%.

As to `Cc1ccc2oc(=O)n(Cc3ccccc3Cl)c2c1`, the activation was inactive: -10.3%.

For the compound `O=S(=O)(c1cccc2c(Cl)cccc12)N1CCCNCC1`, the activation is inactive: 13.2%.

In the case of `CCCNC(=O)C1CCC(CNS(=O)(=O)c2ccc3c(c2)CC(C)N3C(C)=O)CC1` (stereo not drawn), the activation is inactive: -5.15%.

Take `CN(Cc1ccc(F)cc1)S(=O)(=O)c1nnc(NC(=O)c2ccccc2)s1`: the activation is inactive: 16.1%.

Turning to `CCc1ccc(OCC(=O)Nc2cc(-c3nc4cc(C)ccc4o3)ccc2C)cc1`, the activation is inactive: 13.3%.

Take `CCOc1ccc(Nc2ncnc3scc(-c4ccc(OC)cc4)c23)cc1`: the activation was inactive: -7.38%.

In the case of `Cc1ccc(C(=O)NCc2ccccc2)cc1NC(=O)c1nsc2ccccc12`, the activation is inactive: -18.7%.

With `Cc1ccc(NC(=O)c2oc3ccccc3c2NC(=O)C23CC4CC(CC(C4)C2)C3)cc1`, the activation was inactive: -3.36%.

On to `CCOC(=O)c1c(C)[nH]c(C)c1S(=O)(=O)N1CCC(C(=O)Nc2ccc(C)c(N(C)C)c2)CC1`, for which the activation was inactive: 19.9%.

With `CCc1ccc(N2C(=O)CN(S(=O)(=O)CC)CC2(C)C(=O)NC2CCCCC2)cc1` (stereo not drawn), the activation was inactive: -7.53%.

For `Cc1cc(-c2ccc(C)c(S(=O)(=O)NCc3cccs3)c2)on1`, the activation is inactive: -11.7%.

As for `CC(C)(C)OC(=O)N1CCC(c2c(C(=O)N3CCN(Cc4ccccc4)CC3)cnn2-c2ccc(Cl)cc2)CC1`, the activation is inactive: -15.9%.

`Cn1cc(C(=O)NCCc2ccccc2)c(=O)c2cc(S(=O)(=O)N3CCCCC3)ccc21`: the activation was inactive: -2.17%.

As to `c1ccc2c(c1)ncc1nncn12`, the activation is inactive: -0.389%.

Turning to `CC1CCC(NC(=O)Cn2ncc3c4ccccc4n(Cc4ccc(F)cc4)c3c2=O)CC1` (stereo not drawn), the activation was inactive: -21.4%.

For the compound `O=c1[nH]c2ccc(NCc3ccc(-c4ccc(F)cc4)o3)cc2[nH]1`, the activation was inactive: -7.47%.

On to `COc1ccc(CNC(=O)c2nn(C)c3c2CS(=O)(=O)c2ccccc2-3)cc1`, for which the activation was inactive: -2.85%.

Consider `Cc1ccc(Nc2ncc(C(=O)Nc3ccc(F)cc3F)c3ccccc23)cc1Cl`, for which the activation is inactive: -28.6%.

Regarding `CC(=O)c1ccc(NC(=O)CSc2ccc3nnc(CCNS(=O)(=O)c4ccc(C)cc4)n3n2)cc1`, the activation is inactive: -19.7%.

For `CCC1CCCCN1S(=O)(=O)c1cc2c(cc1C)NC(=O)CO2` (stereo not drawn), the activation is inactive: -5.81%.

On to `Cc1ccc(CN(C(=O)COc2ccc([N+](=O)[O-])cc2)c2ccccn2)o1`, for which the activation was inactive: 4.69%.
